# Data reported in publication PMC7819943, “Rice protein-binding microarrays: a tool to detect cis-acting elements near promoter regions in rice”.
# This is one part of the list.
# Target: T1, OsWOX13 (Oryza sativa, UniProt Q5QMM3 1-267)
# T1 sequence: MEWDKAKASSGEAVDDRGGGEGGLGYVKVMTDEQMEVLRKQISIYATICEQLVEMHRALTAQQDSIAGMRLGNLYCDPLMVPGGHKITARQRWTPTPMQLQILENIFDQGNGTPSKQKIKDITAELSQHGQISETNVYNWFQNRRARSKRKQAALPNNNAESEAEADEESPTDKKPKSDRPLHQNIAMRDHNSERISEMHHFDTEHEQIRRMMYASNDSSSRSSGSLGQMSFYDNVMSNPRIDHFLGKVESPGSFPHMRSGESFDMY
# Assay: protein-binding microarray (RPBM); PBS, 2% BSA, 51.3 ng/ul salmon testes DNA, 50 uM zinc acetate, 200 nM TF, 25 C, 1 h; high values mean tight binding
# Conditions: protein: recombinant; tags: N-terminal polyhistidine and DsRed monomer fusion (pET32a); label: CyDye5-dUTP incorporated in the synthesized complementary strand; 3' TTTTT single-stranded linker to array surface; dsDNA, one strand shown
# Method in brief: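 Binding signal is reported as fluorescence intensity per feature (arbitrary units) from an Axon 4000B scanner. Incubation used 200 nM of each Ni–NTA-purified, N-terminally polyhistidine- and DsRed-fused transcription factor from E. coli BL21-CodonPlus on a double-stranded custom Agilent array for 1 h at 25 °C, with 50 µM zinc acetate in the buffer, followed by washing.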
row,Sequence,binding signal
1,ATGAACAACAATTGATTTTGTTACTATATTCCAGCCAATTCGGAGTCACCTAGTGCAG,5300 fluorescence intensity (a.u.)
2,CGATTAATTAGAATGCAGGTAATCGAAGTTATACGAAAATCGGAGTCACCTAGTGCAG,7310 fluorescence intensity (a.u.)
3,TTTAAATTGAAACGCATAGTAATATTTAGGGCCCGAGCCTCGGAGTCACCTAGTGCAG,30100 fluorescence intensity (a.u.)
4,AAAATAATTAAAATAGTACGAGTAGATTCACACAAGATCTCGGAGTCACCTAGTGCAG,8260 fluorescence intensity (a.u.)
5,ACATTGATTAATACGAAATATATCACTCCACAAACATACGCGGAGTCACCTAGTGCAG,36000 fluorescence intensity (a.u.)
6,GCGGTGGTGGTGGGCTTAGTGGAGGCGGAGGCGGCTGAGGCGGAGTCACCTAGTGCAG,3750 fluorescence intensity (a.u.)
7,GTTAAAATGGACCGAAATTTTCAACTAAATTCCTGGCCCACGGAGTCACCTAGTGCAG,5200 fluorescence intensity (a.u.)
8,TCACATAATTACATCCAGGTCCTCGAGCACGCGACACGGACGGAGTCACCTAGTGCAG,15100 fluorescence intensity (a.u.)
9,AAACTCCAATCAAGACCTCTGTGGATGGGCATCCGATGGACGGAGTCACCTAGTGCAG,7350 fluorescence intensity (a.u.)
10,CGTAAACTAACAGTTAAACACCCCTATAAAACAGGCGCCCCGGAGTCACCTAGTGCAG,5660 fluorescence intensity (a.u.)
11,AACTAACAAATTGGCATGGAAACACTAGTATTTTCTAAAGCGGAGTCACCTAGTGCAG,15500 fluorescence intensity (a.u.)
12,AGTGAATTGTCACTTTCTATAGATTGCAACAAAATGAGTACGGAGTCACCTAGTGCAG,3200 fluorescence intensity (a.u.)
13,ACCCTTTGACACTGTTCTTCCTCTCTCTCTCTTCTTTTCTCGGAGTCACCTAGTGCAG,3230 fluorescence intensity (a.u.)
14,GCCCGCCGCGCCAATCAACCGCCGTCGGCCACCGGAAAGCCGGAGTCACCTAGTGCAG,3920 fluorescence intensity (a.u.)
15,AATAATTAGAAGAAATTGTGAGCGTGTTGAGAATTTAGGGCGGAGTCACCTAGTGCAG,26400 fluorescence intensity (a.u.)
16,GTTCATTACCCCTGTGATTAGTCGCTAACTAAGGTGTCGGCGGAGTCACCTAGTGCAG,17800 fluorescence intensity (a.u.)
17,AAACTGTCCATGTCCAAGCTCCACAACAAGATACTTGCAACGGAGTCACCTAGTGCAG,8270 fluorescence intensity (a.u.)
18,TTTGTAGAGTTAATAGATAGACTAGAAACTTAAAGTAGCCCGGAGTCACCTAGTGCAG,4670 fluorescence intensity (a.u.)
19,TCGTTGGTGGGTAGGTGGTGGAGATGGTGGTGGCGGCGGGCGGAGTCACCTAGTGCAG,4870 fluorescence intensity (a.u.)
20,TCTAATCACTTCGAAACTGTGTTAATAACGAGCAAACACACGGAGTCACCTAGTGCAG,4470 fluorescence intensity (a.u.)
21,TTACTTTAATAATATAATAGATTAGGCATATAATACATCCCGGAGTCACCTAGTGCAG,7140 fluorescence intensity (a.u.)

row,Sequence,binding signal
1,GCCTAATTGACCCTTTCATAAACCTCAGCGCCATTTTAGCCGGAGTCACCTAGTGCAG,32700 fluorescence intensity (a.u.)
2,ATTGATTATACAATTATTTTAATCTACTTGTTAAGTTCATCGGAGTCACCTAGTGCAG,39400 fluorescence intensity (a.u.)
3,TGGAAATTAATAGACATTTGTGCTATGAACAACATCATTGCGGAGTCACCTAGTGCAG,22300 fluorescence intensity (a.u.)
4,TATTTTCTTTAATTAGCATCCATGTGTCGTGCTCAATGAACGGAGTCACCTAGTGCAG,4170 fluorescence intensity (a.u.)
5,TTTAATTAATCACGCGCTAATAGACTGCTCCGTTTTCCGTCGGAGTCACCTAGTGCAG,55800 fluorescence intensity (a.u.)
6,AGTATGACAGACGTGTTGGGCTACGACTCTAAATGGGCCACGGAGTCACCTAGTGCAG,3630 fluorescence intensity (a.u.)
7,TGGAAATTATAGCTTATAGACAAAACTGAGGGTGACAATACGGAGTCACCTAGTGCAG,4890 fluorescence intensity (a.u.)
8,ATTTCGTGATATGATGACTTAAATTTGTTGTTATGTGATACGGAGTCACCTAGTGCAG,7940 fluorescence intensity (a.u.)
9,TGCCGTTTGATTTGTTTCTTTTCATACGAGGTGATCATATCGGAGTCACCTAGTGCAG,10500 fluorescence intensity (a.u.)
10,ACATCTAGTTGATTTATTGTTTATGAGACGGAAGGAAAACCGGAGTCACCTAGTGCAG,5100 fluorescence intensity (a.u.)
11,GTAATTGCTGTCAAGGCAGGGGAAGTCATTCCAATCGACGCGGAGTCACCTAGTGCAG,7780 fluorescence intensity (a.u.)
12,ATCCATCCAAATTAATCATTAATCAACAAGAGATGAGGAACGGAGTCACCTAGTGCAG,11300 fluorescence intensity (a.u.)
13,GTTCTAATTTCAACTAAACTTCTAATTTTAGCGTGAACTACGGAGTCACCTAGTGCAG,10300 fluorescence intensity (a.u.)
14,TATCCCAATCAGCGGAGACAAACCACGGTGGAGTCGCCAGCGGAGTCACCTAGTGCAG,10500 fluorescence intensity (a.u.)
15,AATCTAATTGGTTGAAAATGAATGAGTTGTTTGCATTAGACGGAGTCACCTAGTGCAG,22000 fluorescence intensity (a.u.)
16,GTCCTAATATTTGATAGTACTAATTTTCTCCTCAGTTCATCGGAGTCACCTAGTGCAG,3350 fluorescence intensity (a.u.)
17,CGACATTATAATTTAGATTAGTATATTATGGTTTTGACTTCGGAGTCACCTAGTGCAG,28500 fluorescence intensity (a.u.)
18,TATATGATCATTTGGTGGTTTGATTTGTGGCATTATCATACGGAGTCACCTAGTGCAG,7620 fluorescence intensity (a.u.)
19,ACCAAACAAGCTGTTAATTAGTGACGCAAACCATCAACCACGGAGTCACCTAGTGCAG,21700 fluorescence intensity (a.u.)
20,ACAAAATTGAAATTGGAATTCTGATCAGCCACCAAAACAGCGGAGTCACCTAGTGCAG,39300 fluorescence intensity (a.u.)
21,TTAGTAATAACTGGTTCTCTGTCAGTCAAGGTATTGCAGACGGAGTCACCTAGTGCAG,3200 fluorescence intensity (a.u.)
